The source holds more than one record for some entries. The other results are left out here. An entry can have further records. Values given together are repeated measurements (runs, samples, wells, individuals or studies). Signs of the kind (2×) stand for listed records that agree.
Tested on: 695427-040-R-J1-PDC complex spheroids, viability percent T/C
Assay: Anticancer human tumor 695427-040-R-J1-PDC patient-derived colon adenocarcinoma cell line growth inhibition [GQUAD]
Conditions: for IC50: compound alone; for viability, T/C: stronger effect = lower value
Text: DNA G-quadruplex Stabilizer Agents in Combinations in Complex Spheroids
A high-throughput screen of multi-cell type tumor spheroids was designed to identify active combinations of DNA G-quadruplex stabilizer agents and targeted small molecules. Complex spheroids include a stromal component modeled by human endothelial cells (HUVEC) and fibroblasts modeled by human mesenchymal stem cells (MSCs). The concentration ranges selected for each drug and investigational agent were based upon clinically achievable concentrations if the clinical Cmax of the agent was known.
Compounds. The drugs and investigational agents: pidnarulex (CX-5461; NSC782164), APTO-253 (NSC789042), BRACO-19 (NSC847499), peposertib (NSC802822), ceralasertib (NSC780249), elimusertib (NSC800525), camonsertib (NSC841442), AZD-1390 (NSC803789), olaparib (NSC753686), talazoparib (NSC767125), ART-558 (NSC835418), sotorasib (NSC818433), MRTX-1133 (NSC836407), SN-38 (NSC673596), topotecan (NSC609699), etoposide (NSC141540), doxorubicin (NSC123127), gemcitabine (NSC613327), 5-fluorouracil (NSC19893), paclitaxel (NSC125973), vemurafenib (NSC761431), panobinostat (NSC761190), R-306465 (JNJ-16241199; NSC773264), adavosertib (NSC754352), TP-3654 (NSC805149), carboplatin (NSC241240), KSQ-4279 (NSC840948), and staurosporine (NSC755774) were obtained from the National Cancer Institute (NCI) Developmental Therapeutics Program Chemical Repository (34). The FDA-approved anticancer drug set is available from the NCI Developmental Therapeutics Program. […] The stock solutions were prepared in dimethyl sulfoxide (DMSO, Sigma-Aldrich, St. Louis, MO, cat. D2650) at 800-fold the tested concentration and stored at -70 degrees C prior to their use. All drugs and investigational agents were tested over a range starting from a high concentration at or near the clinical Cmax and decreasing in half-log increments. If the clinical Cmax for an agent had not been determined, the highest concentration tested was 10 microM.
2.3 Cell Culture. All cells were maintained in an incubator at 37 degrees C and 5% CO2 with 95% humidity. The PDC lines were cultured according to standard operating procedures established by the NCI PDMR. All PDCs were thawed and cultured in Matrigel-coated flasks prepared with a working solution of 1X Ham's F-12 nutrient mix, without supplementation (Invitrogen, cat. 11765054), 100 U/mL penicillin-streptomycin (Invitrogen, cat. 15140122), and 2.5% Matrigel (Corning Inc., cat. 354248) for the first three passages. The 857933-349-R-J2-PDC line was cultured in 6C/Colon 1B media, which includes advanced DMEM/F-12 (Thermo Fisher Scientific, cat. 12634028), 10 mM HEPES (Thermo Fisher Scientific, cat. 15630080), 1X GlutaMAX supplement (Thermo Fisher Scientific, cat. 35050061), 0.1 mg/mL primocin (InvivoGen, cat. ant-pm-2), 10% defined fetal bovine serum, heat inactivated (HyClone Laboratories Inc., cat. SH30070.03HI), 50% L-WRN conditioned media (ATCC, cat. CRL-3276), 1.25 mM N-Acetyl-L-cysteine (Sigma-Aldrich, cat. A9165), 10 mM nicotinamide (Sigma-Aldrich, cat. N0636), 1X B-27 supplement (Thermo Fisher Scientific, cat. 17504044), 1X N-2 supplement (Thermo Fisher Scientific, cat. 17502048), 10 microM Y-27632 dihydrochloride (Tocris Bioscience, cat. 1254), and 50 ng/mL human EGF recombinant protein (Thermo Fisher Scientific, cat. PHG0311). The 485176-168-R4-J1-PDC line was cultured in Panc media, which includes all 6C/Colon 1B media components plus 100 ng/mL human FGF-10 (Thermo Fisher Scientific, cat. 100-26), 500 nM SB-431542 (Selleckchem, cat. S1067), and gastrin (Tocris, cat. 3006).
[…]
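Also: spheroids exposed to compounds for seven days before readout.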

`O=C(NO)c1cnc(N2CCN(S(=O)(=O)c3ccc4ccccc4c3)CC2)nc1` was tested, and the IC50 was 457 nM, > 10 µM, 467 nM, the viability, T/C (compound alone 1 µM) was 5.02%, 94.8%, 3.55% and the viability, T/C (compound alone 3.16 µM) was 0.3%, 78%, 0.28%. The viability, T/C (compound alone 10 µM) was 0.33%, 72.2%, 0.47%.
For `Cc1cnc(CNC(=O)c2c(=O)c3ccc(N4CCCN(C)CC4)nc3n3c2sc2ccccc23)cn1`, the IC50 (run of 04/16/2024) was 4.89 µM, > 10 µM, 6.05 µM, 7.12 µM, 4.41 µM, 3.93 µM, 6.21 µM, 6.94 µM, 4.29 µM, 4.44 µM, 8.09 µM.
With `CC(=O)O[C@H]1C(=O)[C@@]2(C)[C@H]([C@H](OC(=O)c3ccccc3)[C@]3(O)C[C@H](OC(=O)[C@H](O)[C@@H](NC(=O)c4ccccc4)c4ccccc4)C(C)=C1C3(C)C)[C@]1(OC(C)=O)CO[C@@H]1C[C@@H]2O` the IC50 was > 10 µM (2×) and 462 nM, the viability, T/C (compound alone 1 µM) was 72.4%, 3.24%, 89.7% and the viability, T/C (compound alone 3.16 µM) was 61.3%, 0.31%, 83.7%. The viability, T/C (compound alone 10 µM) was 57%, 0.29%, 72.7%.
For `Cc1[nH]c2ccc(F)cc2c1-c1nc2c3cccnc3c3ncccc3c2[nH]1`, the viability, T/C (compound alone 0.0316 µM) was 105, 112, 102 (2×), 85.6, 107, 94.3, 88.1, 93.4, 96, 99.7, 101%.

Source: PubChem BioAssay AID2060492 (Molecular Pharmacology Branch, DTP, NCI, 2025)
